Measurements published in PubChem BioAssay AID2675 (National Center for Advancing Translational Sciences (NCATS), 2010).
Among all 280,000 compounds or so, about 100 (0.036%) were called active. Inconclusive results, whose numbers are uncertain, are shown with a selection of clear calls. Calls follow the shape of the dose curve; as a rule, active = well fitted inhibition curve with a large enough effect in the signal ratio, with a control signal flat (not every such curve was filed as active); inconclusive = small, poorly fitted or top-dose-only effect, or effect the other way, or a change in a side signal; inactive = no such curve, though single readings can be large or run the other way; the % refers to the signal ratio. Potencies of inconclusive entries are doubtful fits and often do not repeat. “Side channel” marks fits to a control or component signal instead of the main read-out.

Each molecule was assayed against Muscleblind-like protein 1 (Homo sapiens) (UniProt Q9NR56) (assay: qHTS Assay for Inhibitors of MBNL1-poly(CUG) RNA binding). Details: TR-FRET MBNL1-His/biotin-(CUG)12 binding, 665/545 ratio; activity change, negative = inhibition: at 57.5 µM (top of the series).
Procedure, shortened: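 Ratiometric TR-FRET (665 over 545 nm, excitation 340 nm) tracks disruption of MBNL1-His/biotin-(CUG)12 complex after 60 min at room temperature, with compounds at 92 nM to 58 uM final.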
% is scaled to controls: 0 for no effect and ±100 for the full control effect; potency is read from the fitted curve at half-maximal effect; tags tell the direction and shape of the fitted curve or compound fluorescence and quenching.

Sequence of UniProt Q9NR56 (Q9NR56 whole entry, looked up): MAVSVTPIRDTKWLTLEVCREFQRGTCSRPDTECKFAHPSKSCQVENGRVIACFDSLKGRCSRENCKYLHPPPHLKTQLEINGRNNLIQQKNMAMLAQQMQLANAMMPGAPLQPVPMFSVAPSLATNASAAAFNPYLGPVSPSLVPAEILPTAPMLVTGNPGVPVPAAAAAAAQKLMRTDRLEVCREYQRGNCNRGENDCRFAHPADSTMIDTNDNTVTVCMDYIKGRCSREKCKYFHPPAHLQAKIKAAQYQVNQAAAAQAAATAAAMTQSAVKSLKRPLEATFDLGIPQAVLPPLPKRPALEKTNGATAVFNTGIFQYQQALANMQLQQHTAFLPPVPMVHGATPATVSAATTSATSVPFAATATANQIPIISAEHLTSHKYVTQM

Row | Compound | Potency | activity change, negative = inhibition
1 | CC1CCN(c2nc(/C=C/c3ccccc3)nc3ccccc23)CC1 | inconclusive: 0.1 µM [fluorescent, side channel, full curve] | 
2 | CCn1cc([N+](=O)[O-])c(C(=O)Nc2ccn(Cc3ccccc3F)n2)n1 | inconclusive: 28.2 µM [quencher, side channel, single point] | 
3 | O=C(Cn1nnc(-c2ccccc2F)n1)N1CCCCC1 |  | inactive: -6.73%
4 | NC(=O)c1ccccc1NC(=O)NC1CCCCC1 | inconclusive: 39.8 µM [quencher, side channel, single point] | 
5 | Nc1nonc1-c1nc2ccccc2n1CC(=O)N/N=C/c1ccc(-c2ccccc2C(=O)O)o1 | inconclusive: 39.8 µM [quencher, side channel, single point] | 
6 | N#C/C(=C\c1ccc(N2CCOCC2)o1)C(=O)Nc1ccc(O)cc1 | inconclusive: 12.6 µM [quencher, side channel, partial curve] | 
7 | Cc1ccc(N=Nc2c(N)nn3c(C)cc(C)nc23)cc1 | inconclusive: 3.55 µM [quencher, side channel, single point] | 
8 | Oc1c(N=NC(=S)Nc2ccccc2F)c2ccccc2n1Cc1ccccc1F |  | inactive: 3.51%
9 | O=[N+]([O-])c1ccc(/C=N/N2CCN(Cc3ccccc3)CC2)cc1 | inconclusive: 15.8 µM [quencher, partial curve] | 
10 | CCOc1cc(N(CC)CC)ccc1/C=C(/C#N)c1nc2ccccc2[nH]1 |  | inactive: 9.55%
11 | CCOc1ccc(Br)cc1S(=O)(=O)Nc1ccc(Cl)c(S(=O)(=O)N(C)C)c1 | inconclusive: 100 µM [inhibitor, single point] | 
12 | Cc1ccc(OCC(=O)N(Cc2ccccc2)C(C)(C)C)c([N+](=O)[O-])n1 | inconclusive: 31.6 µM [quencher, side channel, partial curve] | 
13 | NC(N)=Nc1nc2ccc([N+](=O)[O-])cc2[nH]1 | inconclusive: 14.1 µM [quencher, partial curve] | 
14 | S=C(Nc1ccc(N2CCOCC2)cc1)Nc1ccc2nc(-c3ccco3)c(-c3ccco3)nc2c1 | inconclusive: 11.2 µM [quencher, side channel, partial curve] | 
15 | CCOC(=O)C1=C(c2ccccc2)NC(=S)NC1C (centres undefined) |  | inactive: 2.73%
16 | CCOC(=O)c1cnc2ccccc2c1Nc1ccc2c(c1)OCCO2 | inconclusive: 22.4 µM [fluorescent, side channel, partial curve, poor fit] | 
17 | O=C(NCCc1ccccc1F)C1CCCN1S(=O)(=O)c1ccc2ccccc2c1 (centres undefined) | inconclusive: 79.4 µM [inhibitor, partial curve, poor fit] | 
18 | O=C(O)c1cc(S(=O)(=O)O)cc(Nc2c3ccccc3nc3ccccc23)c1O | inconclusive: 14.1 µM [quencher, side channel, partial curve] | 
19 | Cc1cc2nc3c(=O)[nH]c(=O)[nH]c3nc2c([N+](=O)[O-])c1N | inconclusive: 11.2 µM [quencher, side channel, partial curve] | 
20 | Cc1ccc(NC(=O)N2CCCC(c3nc(-c4ccc(F)cc4)no3)C2)cc1 (centres undefined) |  | inactive: 2.45%

Row | Compound | Potency | activity change, negative = inhibition
21 | CC1=CC(C)(C)N2C(=O)C(=Nc3ccc(O)cc3)c3cccc1c32 | inconclusive: 14.1 µM [quencher, side channel, partial curve] | 
22 | CCOC(=O)c1c(C)nc2sc3c(=O)n(-c4ccc(C)cc4)cnc3c2c1-c1ccc(OC)cc1 |  | inactive: -2.44%
23 | CN(C)S(=O)(=O)c1ccc(N2CCCC2)c(C(=O)N2CCN(c3ccc([N+](=O)[O-])cc3)CC2)c1 | inconclusive: 25.1 µM [quencher, partial curve] | 
24 | COc1ccc(/C=N/N2C(=O)CSC2=S)cc1 | inconclusive: 31.6 µM [quencher, side channel, single point] | 
25 | COc1ccc2cc3cc(C(=O)NCc4ccccn4)oc3nc2c1 | inconclusive: 1.78 µM [quencher, side channel, partial curve, poor fit] | 
26 | O=C1Nc2ccccc2/C1=N\N1CCOCC1 | inconclusive: 15.8 µM [quencher, side channel, single point] | 
27 | CC1(C)CC(=O)c2sc(NC(=O)c3ccc4ncsc4c3)nc2C1 | inconclusive: 0.794 µM [quencher, side channel, full curve, poor fit] | 
28 | COc1ccc(C(=O)c2ccc([N+](=O)[O-])cc2)cc1S(=O)(=O)N1CCC(C(=O)O)CC1 | inconclusive: 8.91 µM [quencher, side channel, partial curve] | 
29 | COc1ccc2ccc(OC)c(/C=N/n3cnnc3)c2c1 | inconclusive: 14.1 µM [quencher, side channel, partial curve] | 
30 | O=C(NNc1ccc([N+](=O)[O-])cc1[N+](=O)[O-])c1ccco1 | inconclusive: 11.2 µM [quencher, side channel, partial curve] | 
31 | CC1CCCCN1C(=O)/C=C/c1ccccc1[N+](=O)[O-] (centres undefined) | inconclusive: 15.8 µM [quencher, side channel, partial curve] | 
32 | O=[N+]([O-])c1ccc(SCCc2ccccn2)cc1 | inconclusive: 28.2 µM [quencher, side channel, partial curve] | 
33 | N#C/C(=C\c1cccc([N+](=O)[O-])c1)C(=O)NCC1CCCO1 (centres undefined) | inconclusive: 15.8 µM [quencher, side channel, partial curve] | 
34 | O=S(=O)(NCc1ccccc1)c1ccc(-c2cnc(C3CC3)o2)cc1 |  | inactive: -5.68%
35 | Cc1ccc(C)c(-c2cc(C(=O)Nc3sc(C)c(C)c3C(N)=O)c3ccccc3n2)c1 |  | inactive: -2.92%
36 | Cc1cccc(C)c1NC1=NC(=S)N(c2ccc(N(C)C)cc2)C1(C)C | inconclusive: 35.5 µM [fluorescent, side channel, single point] | 
37 | O=C1OCC/C1=C\c1ccc(O)cc1 | inconclusive: 28.2 µM [quencher, side channel, partial curve] | 
38 | CCN(C(=O)COC(=O)c1nn(-c2ccccc2)c(=O)c2ccccc12)C1CCS(=O)(=O)C1 (centres undefined) | inconclusive: 31.6 µM [quencher, side channel, single point] | 
39 | Nc1cc([N+](=O)[O-])ccc1O | inconclusive: 12.6 µM [quencher, side channel, partial curve] | 
40 | CC(C)OC(=O)c1sc2nc(-c3ccccc3)ccc2c1N |  | inactive: 25.7%

Row | Compound | Potency | activity change, negative = inhibition
41 | CCc1ccc(/C=C/C(=O)c2ccc(S(=O)(=O)N(C)C)cc2)cc1 |  | inactive: -5.93%
42 | CC(=O)NC(NC(C)=O)c1ccc(Br)cc1 | inconclusive: 10 µM [quencher, side channel, full curve] | 
43 | O=C1NC(=O)/C(=C/c2cccc([N+](=O)[O-])c2)N1 | inconclusive: 12.6 µM [quencher, side channel, partial curve] | 
44 | Cn1cnnc1SCc1ccc(C(=O)N/N=C(\CCC(=O)O)c2ccc(C(C)(C)C)cc2)cc1 | inconclusive: 0.251 µM [quencher, side channel, full curve, poor fit] | 
45 | COc1ccc([N+](=O)[O-])cc1NC(=O)c1ccccc1N(C)S(C)(=O)=O | inconclusive: 7.08 µM [quencher, side channel, full curve] | 
46 | O=[N+]([O-])c1c(NCCO)cc(N2CCCCC2)c2nonc12 | inconclusive: 11.2 µM [quencher, side channel, partial curve] | 
47 | Cc1cc(SCC(=O)c2cccc([N+](=O)[O-])c2)nc(=O)[nH]1 | inconclusive: 10 µM [quencher, side channel, partial curve] | 
48 | O=C(Nc1c2ccccc2nc2ccccc12)C(Cl)(Cl)Cl | inconclusive: 17.8 µM [quencher, side channel, partial curve] | 
49 | O=C(/C=C/c1ccccc1)C1=C(O)C(=O)N(CCO)C1c1cccc([N+](=O)[O-])c1 (centres undefined) | inconclusive: 17.8 µM [quencher, side channel, partial curve] | 
50 | CCCCSc1nnc(-c2ccc(C)cc2)n1C |  | inactive: -12.8%
51 | CC(=O)c1cc2c(ccc3ccccc32)oc1=O | inconclusive: 3.55 µM [quencher, side channel, full curve] | 
52 | O=C(Cn1ccc(C(F)(F)F)n1)N=Nc1c(O)[nH]c2ccccc12 | inconclusive: 8.91 µM [quencher, side channel, partial curve] | 
53 | O=C(N/N=C/c1ccccc1O)C1SCCCS1 |  | inactive: 3.59%
54 | O=C(O)c1ccc(N=c2oc3cc(O)ccc3cc2C(=O)NCc2ccccc2)cc1 | inconclusive: 31.6 µM [quencher, single point] | 
55 | CC(=O)Nc1ccc(Oc2cc(N)cc([N+](=O)[O-])c2)cc1 | inconclusive: 12.6 µM [quencher, side channel, partial curve] | 
56 | COc1ccc(OC)c(C(=O)NC(CC(N)=O)c2ccc(NCCN3CCCCC3)c([N+](=O)[O-])c2)c1 (centres undefined) | inconclusive: 22.4 µM [quencher, side channel, single point] | 
57 | CCCn1c(NC(=O)C2CCN(S(=O)(=O)c3cccs3)CC2)nc2ccccc21 | inconclusive: 79.4 µM [inhibitor, single point] | 
58 | COc1cc(C2Nc3ccccc3C(=O)N2NS(C)(=O)=O)c([N+](=O)[O-])cc1OC (centres undefined) | inconclusive: 15.8 µM [quencher, side channel, partial curve] | 
59 | O=[N+]([O-])c1ccc(O)c(P(=O)(c2ccccc2)c2ccccc2)c1 | inconclusive: 22.4 µM [quencher, side channel, single point] | 
